From PubChem BioAssay AID1347165 (National Center for Advancing Translational Sciences (NCATS), 2019)
Among all 220,000 compounds or so, about 5,700 (2.6%) were called active. Inconclusive means that the source gave no clear call. Such entries were picked first, then a sample of the others. The call rests on the fitted dose curve; in most records, active means well fitted inhibition curve with a large enough effect; inconclusive means small, poorly fitted or top-dose-only effect; inactive means no such curve, though single readings can be large or run the other way. Where the call is inconclusive, the potency comes from a doubtful curve fit.

Each compound was assayed against Lysine-specific demethylase 5B (Homo sapiens) (UniProt Q9UGL1) (assay: Primary screen for KDM5B Histone Demethylases FDH-coupled qHTS). Details: FDH-coupled NADH fluorescence (FDH is formaldehyde dehydrogenase); activity change, negative = inhibition: at 57.7 µM (top of the series) unless noted.
Method in brief: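 Inhibition is measured as reduced NADH fluorescence generation from FDH coupling to formaldehyde release. Truncated KDM5BΔAP at 200 nM final acts on H3K4me3 peptide (12.5 µM in substrate mix) in pH 7.5 HEPES buffer with Tween-20, 30 min, room temperature.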
Further: nearly all actives have a fitted effect of over 70% in size.
Potency means the concentration at half of the fitted maximal effect; tags describe the fitted curve by direction and shape.
Wherever activity change, negative = inhibition is given: 0% is about no effect.

Chain of UniProt Q9UGL1 (Q9UGL1 whole entry, looked up, the tested form may be a part): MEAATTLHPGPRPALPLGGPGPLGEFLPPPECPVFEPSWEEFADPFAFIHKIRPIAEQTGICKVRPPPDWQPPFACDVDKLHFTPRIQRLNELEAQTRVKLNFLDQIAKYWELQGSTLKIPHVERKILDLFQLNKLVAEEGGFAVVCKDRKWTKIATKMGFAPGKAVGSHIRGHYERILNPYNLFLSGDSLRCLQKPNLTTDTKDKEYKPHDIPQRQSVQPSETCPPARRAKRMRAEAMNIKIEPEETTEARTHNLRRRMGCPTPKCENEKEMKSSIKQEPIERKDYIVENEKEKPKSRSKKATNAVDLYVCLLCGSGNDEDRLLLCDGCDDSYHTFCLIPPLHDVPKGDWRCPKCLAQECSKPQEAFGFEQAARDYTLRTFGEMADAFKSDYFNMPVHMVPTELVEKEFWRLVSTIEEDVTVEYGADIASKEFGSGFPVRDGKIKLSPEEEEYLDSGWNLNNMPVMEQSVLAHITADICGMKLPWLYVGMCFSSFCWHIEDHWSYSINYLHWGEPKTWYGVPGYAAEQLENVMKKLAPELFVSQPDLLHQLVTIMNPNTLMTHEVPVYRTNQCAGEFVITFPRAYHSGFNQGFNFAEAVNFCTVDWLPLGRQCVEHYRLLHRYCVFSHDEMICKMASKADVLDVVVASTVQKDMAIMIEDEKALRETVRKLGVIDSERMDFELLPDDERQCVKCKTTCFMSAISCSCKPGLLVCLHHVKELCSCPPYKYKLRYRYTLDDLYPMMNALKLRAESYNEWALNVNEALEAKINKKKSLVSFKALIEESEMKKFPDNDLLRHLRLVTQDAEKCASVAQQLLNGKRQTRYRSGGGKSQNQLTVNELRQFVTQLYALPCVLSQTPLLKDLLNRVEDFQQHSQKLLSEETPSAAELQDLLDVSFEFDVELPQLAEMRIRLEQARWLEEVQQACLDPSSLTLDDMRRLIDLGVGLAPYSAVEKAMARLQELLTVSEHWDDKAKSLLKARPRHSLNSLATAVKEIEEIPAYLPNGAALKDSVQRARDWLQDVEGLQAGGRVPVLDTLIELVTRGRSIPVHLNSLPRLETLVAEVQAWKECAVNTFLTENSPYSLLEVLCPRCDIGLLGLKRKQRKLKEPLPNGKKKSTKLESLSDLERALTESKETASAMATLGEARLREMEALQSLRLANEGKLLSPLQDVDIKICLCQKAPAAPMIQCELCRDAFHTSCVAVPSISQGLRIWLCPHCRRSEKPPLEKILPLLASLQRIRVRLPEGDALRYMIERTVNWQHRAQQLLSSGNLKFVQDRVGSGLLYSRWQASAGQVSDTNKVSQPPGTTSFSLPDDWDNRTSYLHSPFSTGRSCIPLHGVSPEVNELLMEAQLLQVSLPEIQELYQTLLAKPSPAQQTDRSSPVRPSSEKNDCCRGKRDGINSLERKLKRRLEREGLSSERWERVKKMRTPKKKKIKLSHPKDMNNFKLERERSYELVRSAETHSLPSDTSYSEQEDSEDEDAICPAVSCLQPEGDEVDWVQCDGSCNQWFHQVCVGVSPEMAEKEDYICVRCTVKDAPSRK

Structure (SMILES)	Potency	activity change, negative = inhibition
CCCCOc1ccc(CNC(=O)c2cccc(NC(=O)N3CCSc4ncccc43)c2)cc1	inconclusive: 15.8 µM [inhibitor, partial curve, poor fit]	
Cc1cc2nc3n(c(=O)c2n1CC(=O)Nc1ccc(Cl)cc1F)CCC3	inconclusive: 4.47 µM [inhibitor, single point]	
COc1cc(/C=C/c2nc(-c3ccccc3)nc(-c3ccccc3O)n2)cc(OC)c1OC		inactive: 16%
O=c1c2nc(Nc3cccc(F)c3)ccc2ncn1Cc1ccccc1	inconclusive: 35.5 µM [inhibitor, partial curve, poor fit]	
CCOc1ccccc1Nc1ncnc2c1cnn2-c1ccc(C)cc1	inconclusive: 39.8 µM [inhibitor, partial curve, poor fit]	
COc1ccc(S(=O)(=O)N2C[C@@H]3C[C@H](C2)c2ccc(-c4cccc(C(F)(F)F)c4)c(=O)n2C3)cc1	active: 31.6 µM	
Cc1cccc(Cn2nc(C)c(NC(=O)NC3CCCCC3)c2C)c1		inactive: 18.1%
COc1ccc(-c2cc(N3CCCN(C(=O)c4ccc(C)c(C)c4)CC3)n[nH]2)cc1	inconclusive: 14.1 µM [inhibitor, partial curve]	
O=C1Cc2c(-c3cccc(N4CCOCC4)c3)n[nH]c2CN1CCOc1ccccc1		inactive: -15.8% [at 86.2 µM]
COc1ccc2c(c1)c1c(c(=O)n(CCc3ccccc3)c(=O)n1Cc1cccc(Cl)c1)n2C	inconclusive: 31.6 µM [inhibitor, partial curve, poor fit]	
COc1ccc2nc([C@H]3CCN(Cc4ccc(NC(C)=O)cc4)C3)[nH]c2c1	inconclusive: 15.8 µM [inhibitor, partial curve]	
COc1cc(SC)ccc1C(=O)Nc1cccc(C2OCCCO2)c1	inconclusive: 31.6 µM [inhibitor, single point]	
c1ccc2c(NC3C4CC5CC(C4)CC3C5)nc(N3CCCCC3)nc2c1 (stereo not drawn)		inactive: -23%
Cc1ccc(-c2cc(-c3cccnc3)c3cncn3c2)cn1	active: 35.5 µM	
COc1ccc(CC(=O)Nc2nc3c(s2)CC(C)CC3)cc1 (stereo not drawn)	inconclusive: 17.8 µM [inhibitor, partial curve, poor fit]	
CS(=O)(=O)N(CC(=O)Nc1ccc(S(=O)(=O)N2CCCCCC2)cc1)c1ccc(F)cc1		inactive: -16.9%
Cc1ccc(NC(=O)C2CCCN(S(=O)(=O)c3ccc4[nH]c(=O)ccc4c3)C2)cc1Cl (stereo not drawn)	inconclusive: 25.1 µM [inhibitor, single point]	
COc1ccc(-c2ccc3ncc(Nc4ccccc4Cl)n3n2)cn1		inactive: 3.05% [at 86.2 µM]
COC(=O)[C@@H]1Cc2ncn(Cc3ccc(OC)cc3)c2CN1S(C)(=O)=O	inconclusive: 28.2 µM [inhibitor, single point]	
COc1ccc(OCC(=O)Nc2ccc(-c3nc4cc(C)cc(C)c4o3)cc2)cc1	inconclusive: 1.41 µM [inhibitor, full curve, poor fit]	
O=C(COC(=O)c1cccc([N+](=O)[O-])c1)c1ccc(Cl)cc1		inactive: 4.2%
COc1ccc2c(c1)cc(CNc1ccc(OC)c(OC)c1)c(=O)n2CC(=O)Nc1ccccc1C	inconclusive: 2.51 µM [inhibitor, full curve, poor fit]	

Structure (SMILES)	Potency	activity change, negative = inhibition
Cc1nc(N2CCC(C(=O)NCCc3ccccc3)CC2)cc(C(F)(F)F)n1	inconclusive: 39.8 µM [inhibitor, single point]	
CCOC(=O)/C(=C/C=C(\C1=CCCCC1)N(CC)CC)C(C)=O		inactive: -18.2%
COc1ccc(CCNC(=O)CCc2c(C)nc3c4c(C)cc(C)nc4nn3c2C)cc1OC	inconclusive: 28.2 µM [inhibitor, partial curve, poor fit]	
CCOc1ccc(CNC(=O)c2ccc3oc(=O)n(Cc4ccccc4)c3c2)cc1		inactive: 19.5%
Cc1cc(C(=O)NC2CC2)c2c(C3CCNC3)noc2n1 (stereo not drawn)	inconclusive: 100 µM [inhibitor, partial curve, poor fit]	
Cc1noc(C)c1CC(=O)NC1CCCc2c1[nH]c1ccccc21 (stereo not drawn)	inconclusive: 15.8 µM [inhibitor, partial curve]	
O[C@H]1[C@H](NCc2cccc(C(F)(F)F)c2)[C@@H](c2cccnc2)C[C@H]1O		inactive: 28.1% [at 86.2 µM]
COc1cccc2c1cc1c(=O)n(CC(=O)N3CCN(c4cccc(C)c4C)CC3)nc(C)n12	inconclusive: 28.2 µM [inhibitor, partial curve, poor fit]	
CC(Sc1nc(-c2ccco2)nc2ccccc12)C(=O)N(C(C)C)C(C)C (stereo not drawn)	inconclusive: 2.82 µM [inhibitor, full curve, poor fit]	
Cc1cc2nc(-c3ccc[nH]c3=O)n(Cc3ccccc3F)c2cc1C	inconclusive: 25.1 µM [inhibitor, partial curve, poor fit]	
CCc1[nH]c2ccc(CNC(=O)Cc3cnc4c(C)cccn34)cc2c1C	inconclusive: 28.2 µM [inhibitor, single point]	
COc1ccc2cc(C(=O)NC3CCN(C4CC4)C3)c(C)nc2c1 (stereo not drawn)	inconclusive: 39.8 µM [inhibitor, single point]	
CC1Cc2nc(SCC(=O)N3CCCCC3)n(-c3ccccc3)c(=O)c2S1 (stereo not drawn)		inactive: 14.2%
O=C(c1cc(Br)cn2ccnc12)N1CCC(N2CCCCCC2=O)CC1	active: 25.1 µM	
CCN(CC)c1ccc(NC(=O)c2cccn2-c2nnc(N3CCCCC3)s2)c(C)c1	inconclusive: 7.94 µM [inhibitor, partial curve, poor fit]	
O=C(NC1CCC(c2ccccc2)CC1)c1ccncc1 (stereo not drawn)		inactive: 13%
Cc1c(-c2ccccc2F)[nH]c2ccc(CNC(=O)C3CCNC3)cc12 (stereo not drawn)	active: 28.2 µM	
COc1ccc(C)cc1NC(=O)NNC(=O)c1cc2ccccc2cc1O	inconclusive: 31.6 µM [inhibitor, partial curve, poor fit]	
Cc1ccc(OCCCN)cc1		inactive: -1.28%
N#Cc1cccc(-c2cn3c(n2)N(C(=O)C2CCCO2)CCC3)c1 (stereo not drawn)	active: 31.6 µM	
Cc1cccc(Nc2nnc(-c3ccc(C)c(S(=O)(=O)N4CCCCC4)c3)c3ccccc23)c1	inconclusive: 39.8 µM [inhibitor, single point]	
